In patent publication US20250352659A1, “SELF-STABILIZING LINKER CONJUGATES” (priority 2023, published 2025):

B1: ADC4-10o: Ifinatamab ADC of Table 4, open-ring (RO) conjugator (conjugate)
heavy: QVQLVQSGAEVKKPGSSVKVSCKASGYTFTNYVMHWVRQAPGQGLEWMGYINPYNDDVKYNEKFKGRVTITADESTSTAYMELSSLRSEDTAVYYCARWGYYGSPLYYFDYWGQGTLVTVSSASTKGPSVFPLAPSSKSTSGGTAALGCLVKDYFPEPVTVSWNSGALTSGVHTFPAVLQSSGLYSLSSVVTVPSSSLGTQTYICNVNHKPSNTKVDKRV[human IgG1 Fc skipped]
light: EIVLTQSPATLSLSPGERATLSCRASSRLIYMHWYQQKPGQAPRPLIYATSNLASGIPARFSGSGSGTDFTLTISSLEPEDFAVYYCQQWNSNPPTFGQGTKVEIKRTVAAPSVFIFPPSDEQLKSGTASVVCLLNNFYPREAKVQWKVDNALQSGNSQESVTEQDSKDSTYSLSSTLTLSKADYEKHKVYACEVTHQGLSSPVTKSFNRGEC
B2: ADC4-12o: Ifinatamab ADC of Table 4, open-ring (RO) conjugator (conjugate)
heavy: B1 heavy
light: B1 light
B3: ADC4-11o: Ifinatamab ADC of Table 4, open-ring (RO) conjugator (conjugate)
heavy: B1 heavy
light: B1 light
B4: ADC4-14o: Ifinatamab ADC of Table 4, open-ring (RO) conjugator (conjugate)
heavy: B1 heavy
light: B1 light
B5: ADC4-13o: Ifinatamab ADC of Table 4, open-ring (RO) conjugator (conjugate)
heavy: B1 heavy
light: B1 light
B6: ADC4-16o: Ifinatamab ADC of Table 4, open-ring (RO) conjugator (conjugate)
heavy: B1 heavy
light: B1 light
B7: ADC4-8o: Ifinatamab ADC of Table 4, ring-opened maleimide (conjugate)
heavy: B1 heavy
light: B1 light
B8: ADC4-9o: Ifinatamab ADC of Table 4, ring-opened maleimide (conjugate)
heavy: B1 heavy
light: B1 light
B9: ADC4-B: Ifinatamab (anti-B7H3) ADC with a non-RO conjugator, comparator (conjugate)
heavy: B1 heavy
light: B1 light

Tested on: not listed separately
Experiment: ADC stability in pH 7.4 and 8.0 GSH buffer
Type: physicochemical
Conditions: 10 mM GSH, 18 h, pH 7.4, 22 °C
Procedure: (§1) After the conjugation and hydrolysis steps described above (see “DAR8 antibody drug conjugate/conjugator-antibody conjugate preparation”), conjugator-antibody conjugates were incubated in formulation buffer (pH 5.5 20 mM histidine buffer) or glutathione (GSH) buffer (pH 7.4 or 8.0), and the solutions were left at 22 or 37° C. for 1˜168 h. Hydrolysis status was monitored via reduced LCMS. Results are presented in Table 6, Table 7, and FIGS. 2A-23B.
(§2) Results of stability assessments of ADCs in GSH solution or formulation buffer are presented in Table 8 and Table 9, respectively, and FIGS. 24A-37B.

First: B1
Second: B2
The “MS DAR” value of the first is lower: 8.04 for the first, 8.18 for the second.

In the case of B3, the “MS DAR” value is reported as 8.34.

Same assay, conditions: 10 mM GSH, 18 h, pH 7.4, 37 °C

Going from B1 to B2, the “MS DAR” value rises from 8.02 to 8.32.

In the case of B3, the “MS DAR” value is reported as 8.48.

Same assay, conditions: 10 mM GSH, 18 h, pH 8.0, 22 °C

Compared with B1, B2 is higher in “MS DAR” value: 8.04 for the first, 8.20 for the second.

For B3, the “MS DAR” value was 8.34.

Same assay, conditions: 10 mM GSH, 72 h, pH 7.4, 22 °C

Compared with B4, B5 is lower in “MS DAR” value: 8.14 for the first, 7.94 for the second.

Same assay, conditions: 10 mM GSH, 72 h, pH 7.4, 37 °C

Going from B4 to B5, the “MS DAR” value falls from 8.16 to 7.96.

Same assay, conditions: 10 mM GSH, 72 h, pH 8.0, 22 °C

Compared with B4, B5 is lower in “MS DAR” value: 8.12 for the first, 7.94 for the second.

Same assay, conditions: 10 mM GSH, 96 h, pH 7.4, 22 °C

In the case of B6, the “MS DAR” value is reported as 8.14.

Same assay, conditions: 10 mM GSH, 96 h, pH 7.4, 37 °C

With B6 the “MS DAR” value was 8.20.

Same assay, conditions: 10 mM GSH, 96 h, pH 8.0, 22 °C

In the case of B6, the “MS DAR” value is reported as 8.14.

Same assay, conditions: incubation in GSH solutions (pH 7.4 or 8.0 for 18 hours)

For B6, the deconjugation events was “no deconjugation events”.

Tested on: not listed separately
Experiment: ADC stability in formulation buffer (20 mM histidine buffer)
Type: physicochemical
Conditions: pH 5.5, 22 °C
Procedure: as §1, §2

Compared with B6, B1 is lower in “MS DAR-T = 0 h” value: 8.06 for the first, 8.02 for the second.

B2 and B4 are the same in “MS DAR-T = 0 h” value: 8.06 for the first, 8.06 for the second.

Compared with B3, B5 is lower in “MS DAR-T = 0 h” value: 8.12 for the first, 8.00 for the second.

Same assay, conditions: storage in formulation buffer for one week

With B6 the deconjugation events was “no deconjugation events”.

Same assay, conditions: time 168 h, pH 5.5, 22 °C

First: B6
Second: B1
The “MS DAR-T = 168 h” value of the first is lower: 8.04 for the first, 8.08 for the second.

First: B2
Second: B4
The “MS DAR-T = 168 h” value of the first is higher: 8.10 for the first, 8.08 for the second.

Compared with B3, B5 is lower in “MS DAR-T = 168 h” value: 8.18 for the first, 8.02 for the second.

Tested on: not listed separately
Experiment: ADC hydrophobicity evaluation by HIC (Method 1)
Type: physicochemical
Conditions: later retention time = higher hydrophobic property
Procedure: HIC method: HPLC analysis was carried out under the following measurement conditions:
• HPLC system: Waters ACQUITY ARC HPLC System • Detector: measurement wavelength: 280 nm • Column: Tosoh Bioscience 4.6 μm ID×3.5 cm, 2.5 μm butyl-nonporous resin column • Column temperature: 25° C. • Mobile phase A: 1.5 M ammonium sulfate, 50 mM phosphate buffer, pH 7.0 • Mobile phase B: 50 mM phosphate buffer, 25% (V/V) isopropanol, pH 7.0 • Gradient program: 0% B-0% B (0 min-2 min), 0% B-100% B (2 min-15 min), 100% B-100% B (15 min-16 min), 100% B-0% B (16 min-17 min), 0% B-0% B (17 min-20 min) • Injected sample amount: 20 μg
ADC hydrophobicity evaluation: An ADC with a higher hydrophobic property would appear with a later retention time from HIC (hydrophobicity interaction column) chromatography. Results are presented in Table 4 using the DAR8 peak as a reference.

B6 and B1 are within 1.5-fold of each other in “DAR8 Species HIC Retention Time (min) (Method 1)” value (“DAR8 Species HIC Retention Time” below): 9.795 min for the first, 9.898 min for the second.

B2 and B4 are within 1.5-fold of each other in “DAR8 Species HIC Retention Time” value: 9.801 min for the first, 9.977 min for the second.

B7 and B8 are within 1.5-fold of each other in “DAR8 Species HIC Retention Time” value: 10.444 min for the first, 10.883 min for the second.

B3 and B5 are within 1.5-fold of each other in “DAR8 Species HIC Retention Time” value: 9.948 min for the first, 9.877 min for the second.

For B9, the “DAR8 Species HIC Retention Time” value was 10.860 min.

Tested on: H1650 cells
Experiment: ADCs in vivo efficacy study, H1650 model of lung cancer
Design: species or system BALB/c Nude mice
Conditions: H1650 human lung cancer model (FIG. 44)
Procedure: Female BALB/c Nude mice were subcutaneously implanted with 3× 10^6 H1650 cells per 200 μL PBS/matrigel in the right flank. After inoculation, tumor volumes were determined twice weekly in two dimensions using a caliper and were expressed in mm^3 using the formula V=0.5 (a×b^2) where a and b are the long and short diameters of the tumor, respectively. […] Partial regression (PR) was defined as tumor volume smaller than 50% of the starting tumor volume on the first day of dosing in three consecutive measurements and complete regression (CR) was defined as tumor volume less than 14 mm^3 in three consecutive measurements. Data are presented as mean tumor volume±standard error of the mean (SEM). Tumor growth inhibition (TGI) is calculated using the following formula: […]

In the case of B6, the “anti-tumor activity compared with non-RO conjugator ADC (ADC4-B)” value is reported as “superior”.
In the case of B1, the “anti-tumor activity compared with non-RO conjugator ADC (ADC4-B)” value is reported as “superior”.
With B2 the “anti-tumor activity compared with non-RO conjugator ADC (ADC4-B)” value was “superior”.
With B4 the “anti-tumor activity compared with non-RO conjugator ADC (ADC4-B)” value was “superior”.

Same assay, conditions: H1650 human lung cancer model, i.v., 1 or 3 mg/kg QW*2 (FIG. 44)

With B6 the anti-tumor activity was “potent anti-tumor activities”.
For B1, the anti-tumor activity was “potent anti-tumor activities”.
With B2 the anti-tumor activity was “potent anti-tumor activities”.
With B4 the anti-tumor activity was “potent anti-tumor activities”.
